Results are given in words; binding and its absence hold for the method and conditions named. Some entries that bind do so weakly or less than the wild type. For some assays here: Where a sequence is shown, tags or fusion partners need not be part of it.
Assays:
[1] = target: hGPR182 T2A GFP in HEK293 cells (human) (UniProt O15218); assay: uptake of fluorescent chemokine by confocal microscopy; HEK293 cells expressing mGPR182 or hGPR182 (T2A GFP) incubated with 100-200 nM fluorescent chemokine at 37°C, fixed and imaged (3D reconstruction), or imaged live; only the binder purified
[2] = target: T1, mGPR182 T2A GFP in HEK293 cells (mouse) (UniProt P43142); assay: as above
T1 sequence: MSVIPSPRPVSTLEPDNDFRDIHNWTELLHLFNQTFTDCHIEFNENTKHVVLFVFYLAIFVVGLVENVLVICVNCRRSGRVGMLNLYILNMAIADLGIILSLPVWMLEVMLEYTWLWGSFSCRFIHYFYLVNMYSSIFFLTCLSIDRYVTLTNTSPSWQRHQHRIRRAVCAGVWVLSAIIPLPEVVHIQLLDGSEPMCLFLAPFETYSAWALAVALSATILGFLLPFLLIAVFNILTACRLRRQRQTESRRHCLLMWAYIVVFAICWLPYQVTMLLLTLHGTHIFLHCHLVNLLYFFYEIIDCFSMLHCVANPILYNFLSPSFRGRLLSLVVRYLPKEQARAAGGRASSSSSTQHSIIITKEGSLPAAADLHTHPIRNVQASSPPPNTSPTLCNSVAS

Amino acid sequences for entries named in this document (tags omitted). A change or cut given only in a name is not applied to a line headed by its entry. Residues count along the entry.
UniProt O15218: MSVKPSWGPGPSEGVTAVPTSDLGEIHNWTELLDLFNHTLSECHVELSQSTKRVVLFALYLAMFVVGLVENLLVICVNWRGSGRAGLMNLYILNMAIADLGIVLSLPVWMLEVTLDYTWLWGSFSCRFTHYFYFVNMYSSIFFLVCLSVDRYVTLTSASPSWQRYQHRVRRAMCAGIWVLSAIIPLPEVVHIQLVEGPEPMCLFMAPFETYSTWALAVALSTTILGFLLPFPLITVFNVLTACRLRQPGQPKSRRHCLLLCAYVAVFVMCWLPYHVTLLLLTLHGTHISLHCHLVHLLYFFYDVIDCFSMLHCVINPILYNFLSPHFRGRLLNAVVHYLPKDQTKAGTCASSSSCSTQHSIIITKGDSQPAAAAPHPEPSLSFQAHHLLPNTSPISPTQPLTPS
UniProt Q9JIL2, residues 17-130: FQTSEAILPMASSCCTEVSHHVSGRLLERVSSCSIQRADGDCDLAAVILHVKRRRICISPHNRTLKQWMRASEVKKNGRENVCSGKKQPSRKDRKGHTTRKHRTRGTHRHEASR

[3] = target: T2, ACKR2 (T2A GFP) in 300.19 pre-B cells (UniProt O00590); assay: flow cytometry on cells; binding: 300.19 pre-B cells stably expressing the receptor (T2A GFP) incubated with 100 or 200 nM fluorescently labelled chemokine at 4°C for 45 min; MFI of parental cells subtracted; only the binder purified
T2 sequence: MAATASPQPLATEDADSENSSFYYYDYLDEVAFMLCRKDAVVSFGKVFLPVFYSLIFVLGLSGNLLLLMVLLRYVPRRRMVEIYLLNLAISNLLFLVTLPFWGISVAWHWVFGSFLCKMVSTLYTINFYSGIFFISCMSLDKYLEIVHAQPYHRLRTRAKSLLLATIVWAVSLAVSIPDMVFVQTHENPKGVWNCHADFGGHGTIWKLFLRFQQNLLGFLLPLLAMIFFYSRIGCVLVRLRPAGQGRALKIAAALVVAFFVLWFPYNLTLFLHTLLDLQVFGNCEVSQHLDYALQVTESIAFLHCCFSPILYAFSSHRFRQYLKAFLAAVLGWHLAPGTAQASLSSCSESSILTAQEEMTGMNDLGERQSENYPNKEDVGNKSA

[4] = target: T3, ACKR1 (T2A GFP) in 300.19 pre-B cells (UniProt Q16570); assay: as above
T3 sequence: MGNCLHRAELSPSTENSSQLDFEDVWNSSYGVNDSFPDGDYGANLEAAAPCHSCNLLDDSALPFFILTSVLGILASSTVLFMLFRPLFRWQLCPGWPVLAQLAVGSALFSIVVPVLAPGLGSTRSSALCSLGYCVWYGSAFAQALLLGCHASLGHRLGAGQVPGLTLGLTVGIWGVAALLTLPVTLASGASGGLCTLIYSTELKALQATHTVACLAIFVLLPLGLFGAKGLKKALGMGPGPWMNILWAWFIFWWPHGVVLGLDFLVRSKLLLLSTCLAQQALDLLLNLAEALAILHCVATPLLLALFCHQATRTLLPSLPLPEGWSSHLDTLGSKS

[5] = target: T4, murine GPR182 (mGPR182), expressed from mGPR182 T2A GFP in 300.19 pre-B cells (mouse) (UniProt P43142); assay: flow cytometry on cells; competition scavenging at 37°C: 300.19 cells expressing mGPR182 or hGPR182 with 3 nM fluorescent chemokine and increasing concentrations of its unlabeled counterpart, 45 min; only the binder purified
T4 sequence: T1 sequence

[6] = target: human GPR182 (hGPR182), expressed from hGPR182 T2A GFP in 300.19 pre-B cells (human) (UniProt O15218); assay: as above
[7] = target: T4, murine GPR182 (mGPR182), expressed from mGPR182 T2A GFP in 300.19 pre-B cells (mouse); assay: flow cytometry on cells; competition binding at 4°C: 300.19 cells expressing mGPR182 or hGPR182 with 3 nM fluorescent chemokine and increasing concentrations of its unlabeled counterpart, 45 min; only the binder purified
[8] = target: human GPR182 (hGPR182), expressed from hGPR182 T2A GFP in 300.19 pre-B cells (human) (UniProt O15218); assay: as above

mCCL28, fluorescently labelled (from UniProt Q9JIL2 17-130) (ligand)
binding [1]: binds
binding [2]: binds
binding [3]: no binding (tested: 100 nM)
binding [4]: no binding (tested: 100 nM)
binding [5]: binds
binding [6]: binds
binding [7]: binds
binding [8]: binds
